{
  "source": "the supplement of paper PMC11417369",
  "note": "± gives the standard deviation of the averaged measurements. This is one part of the list.",
  "data": [
    {"tested_on": "PfAP2-EXP AP2 domain (GST-tagged)", "assay": "gcPBM binding intensity (ln(normalized median fluorescence intensity)); higher = stronger DNA binding", "in_short": "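The binding buffer was 1× PBS containing 1% milk, 0.2 mg/ml BSA, 0.5% salmon testes DNA and 0.03% Triton X-100. In it, GST-tagged P. falciparum DNA-binding domains expressed in E. coli were applied for 1 h to an Agilent 4 × 180k array of primer-extended double-stranded 36-bp intergenic genomic probes plus negative controls. Binding intensity, read with Alexa488 anti-GST antibody and a 488 nm scan, is the highest Masliner-normalised natural-log median intensity across replicate spots of either probe orientation.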", "values": [
      {"sequence": "AGTGTGCTCAGCTTAGCACAAATTGGAATACCATGT [CACACA_negctrl_site367]", "gcPBM binding intensity (ln)": "8.63 ± 0.4"},
      {"sequence": "GAAAATGAAATCCTTGCATGTAAAATTAAAATAGAA [TGCATGCA_site569]", "gcPBM binding intensity (ln)": "9.47 ± 0.25"},
      {"sequence": "GTAGTAATAAATTAAAGTACAGAATATATTATACTA [XGTACX_site2809]", "gcPBM binding intensity (ln)": "8.56 ± 0.44"},
      {"sequence": "TTTTTTTCTTAAAGATGTACTTTTTAAAAATAATCT [XGTACX_site1429]", "gcPBM binding intensity (ln)": "8.34 ± 0.4"},
      {"sequence": "TATTTGCTACATATATGTACTAAAAACTTTTTGCTT [XGTACX_site2362]", "gcPBM binding intensity (ln)": "8.75 ± 0.37"},
      {"sequence": "TATTATAAAAATATTCAGATACATTAACTTACTTTT [XGTACX_negctrl_site4]", "gcPBM binding intensity (ln)": "7.96 ± 0.38"},
      {"sequence": "TGTGTGTGTTCATGGGTGCTTTAATACTATTATAGG [GTGCAC_site9465]", "gcPBM binding intensity (ln)": "8.93 ± 0.11"},
      {"sequence": "TATCAATTTTTCTGGCTATCCAATTAGGGGAAGCCA [CACACA_negctrl_site1045]", "gcPBM binding intensity (ln)": "8.01 ± 0.52"},
      {"sequence": "CAAAAAATTTGACGTAGTACTTAAAAAAAAAAAAAA [XGTACX_site4523]", "gcPBM binding intensity (ln)": "8.23 ± 0.53"},
      {"sequence": "ATTTGCTCACAAGAAGCACACAAAAAAAGAAAAAAA [CACACA_site9338]", "gcPBM binding intensity (ln)": "8.34 ± 0.47"},
      {"sequence": "TATGATTTCACATAATGTACTTGCTAATTCGTGAAT [XGTACX_site1408]", "gcPBM binding intensity (ln)": "8.21 ± 0.3"},
      {"sequence": "GGGAAAATATTTGGGTGTACAAACAAATTAGCTAGC [XGTACX_site6795]", "gcPBM binding intensity (ln)": "9.03 ± 0.47"},
      {"sequence": "ATATAAATAAACAGGTGTACTATAATGTTCATAGTA [XGTACX_site1553]", "gcPBM binding intensity (ln)": "8.51 ± 0.33"},
      {"sequence": "TAATTATATATATATGCATGTTATAATTTTTATTTT [TGCATGCA_site78]", "gcPBM binding intensity (ln)": "8.195 ± 0.007"},
      {"sequence": "AAGAAAATATAAAATGCACACTATAAATTGTATTTA [CACACA_site4257]", "gcPBM binding intensity (ln)": "8.38 ± 0.31"},
      {"sequence": "TCTTTAACAAGTTAAACACACATACATAAATACATA [CACACA_site5406]", "gcPBM binding intensity (ln)": "8.62 ± 0.38"},
      {"sequence": "TTATGTCATAAATGCACACATATACATTGTTTTGAT [CACACA_site646]", "gcPBM binding intensity (ln)": "8.68 ± 0.19"},
      {"sequence": "ATTAAGACACATTGCACACGTGCACCCATAGAAAAA [CACACA_site408]", "gcPBM binding intensity (ln)": "9.17 ± 0.41"},
      {"sequence": "TGAAAAAGGAAAAAAAAAAAAAAAAAAAAAACGAAA [GTGCAC_negctrl_site555]", "gcPBM binding intensity (ln)": "8.27 ± 0.68"},
      {"sequence": "GACCATATGAATAATGCACACGTTTTAAAATATTAA [CACACA_site5312]", "gcPBM binding intensity (ln)": "8.99 ± 0.028"},
      {"sequence": "TATTTATTATTAAGATGTACATAAAACACTGAATAA [XGTACX_site4246]", "gcPBM binding intensity (ln)": "8.7 ± 0.28"},
      {"sequence": "TATCATTTCATATCAAGTACAAACATTTTACATATA [XGTACX_site5307]", "gcPBM binding intensity (ln)": "8.41 ± 0.43"},
      {"sequence": "TTTTAATTAAGACACACACACACATATAAATATGTA [CACACA_site7144]", "gcPBM binding intensity (ln)": "8.47 ± 0.47"},
      {"sequence": "ATAATAATATATATTGTACACACAAAATGGGAAAAA [CACACA_site8568]", "gcPBM binding intensity (ln)": "8.98 ± 0.47"},
      {"sequence": "TATATATATATAATAGTGCATAAATAAATATATAAA", "gcPBM binding intensity (ln)": "9.65 ± 0.057"},
      {"sequence": "AGCTCTTGTCATTTTGCACACACACCCGTATAGGTT [CACACA_site3056]", "gcPBM binding intensity (ln)": "9.07 ± 0.42"},
      {"sequence": "ATCCATTATTTTTGTTGTACGGGTAACTTTAAAAAG [XGTACX_site2226]", "gcPBM binding intensity (ln)": "8.86 ± 0.5"},
      {"sequence": "TCTTTTTTTTTTAAACGTACATTGCATTATCACGTA [XGTACX_site6873]", "gcPBM binding intensity (ln)": "8.78 ± 0.38"},
      {"sequence": "GATTCTTCACCGTACTCACACATATATATATATATA [CACACA_site5665]", "gcPBM binding intensity (ln)": "10.2 ± 0.52"},
      {"sequence": "AAAAGGGAAATAAAATAAAAAAAGAAACATATATAG [CACACA_negctrl_site455]", "gcPBM binding intensity (ln)": "8.85 ± 0.67"},
      {"sequence": "TTAATTTCTATATACGCATGTATGAATAAGATATTG [TGCATGCA_site202]", "gcPBM binding intensity (ln)": "8.36 ± 0.57"},
      {"sequence": "TAATTATATGTATACACACACATACATTTACATAAC [CACACA_site3238]", "gcPBM binding intensity (ln)": "8.66 ± 0.52"},
      {"sequence": "TATAATTATATATATAGTACAGATTTGTTATGTTTA [XGTACX_site7724]", "gcPBM binding intensity (ln)": "8.46 ± 0.47"},
      {"sequence": "CAAACAAACAAATATACACACTTTTGTATAAAGTAA [CACACA_site5860]", "gcPBM binding intensity (ln)": "8.32 ± 0.42"},
      {"sequence": "ATTTTTTTATAAGAAAATTTCTAACGTTAAAAAAAA [CACACA_negctrl_site1367]", "gcPBM binding intensity (ln)": "8.38 ± 0.59"},
      {"sequence": "CACACGCACGAACACACACACACACGCATATAAATA [CACACA_site6302]", "gcPBM binding intensity (ln)": "8.74 ± 0.38"},
      {"sequence": "AATATATATATATTCACACATAAAAAAGTAAAAAAA [CACACA_site5040]", "gcPBM binding intensity (ln)": "8.66 ± 0.49"},
      {"sequence": "TATCTCATAGTATACACACACACACCCACCCATATA [CACACA_site1739]", "gcPBM binding intensity (ln)": "9.29 ± 0.79"},
      {"sequence": "ATTTCATATACAAATTGTACATACAATTTTATGTTT [XGTACX_site3240]", "gcPBM binding intensity (ln)": "8.5 ± 0.3"},
      {"sequence": "TTAAAAATAATATTATGTACTAAGAATAAATATATA [XGTACX_site3100]", "gcPBM binding intensity (ln)": "8.34 ± 0.43"},
      {"sequence": "TGTTAAAATAAAATCTATTACATTTTTATGGTTATA [XGTACX_negctrl_site525]", "gcPBM binding intensity (ln)": "8 ± 0.45"},
      {"sequence": "TCTTGTAAATATATGTGTATATTATATTTTATTATA [TGCATGCA_negctrl_site117]", "gcPBM binding intensity (ln)": "8.24 ± 0.47"},
      {"sequence": "TGCAAGGAAAAACACACACACACATAAATGTATATA [CACACA_site751]", "gcPBM binding intensity (ln)": "8.58 ± 0.42"},
      {"sequence": "CTTAATATTCTTTAAAGTACACAAAATAAGAATATA [XGTACX_site5489]", "gcPBM binding intensity (ln)": "8.87 ± 0.59"},
      {"sequence": "AAAAAACACGCACATACACACAAAAATGTTATAAAT [CACACA_site6188]", "gcPBM binding intensity (ln)": "8.59 ± 0.59"},
      {"sequence": "ATCTCATAAAACCGCACACACATAAAATTTGCATTA [CACACA_site3891]", "gcPBM binding intensity (ln)": "8.63 ± 0.39"},
      {"sequence": "TTATATTTTTTAATTACACACAATTTTTATAAATAT [CACACA_site4148]", "gcPBM binding intensity (ln)": "8.36 ± 0.4"},
      {"sequence": "CTAGTAAAAAATGCAAGTACATACATTATAAGTATA [XGTACX_site3908]", "gcPBM binding intensity (ln)": "8.69 ± 0.35"},
      {"sequence": "ATATTGGAGCACAACACACACAAGTATAAATATGGA [CACACA_site6834]", "gcPBM binding intensity (ln)": "9.03 ± 0.45"},
      {"sequence": "AAAGAGAACAGAAGTACACACATGTTCTTTTAGTAA [CACACA_site5557]", "gcPBM binding intensity (ln)": "8.44 ± 0.47"},
      {"sequence": "ATATTCTGCTGTTTAGTGCAATTATGAAATTATGAT", "gcPBM binding intensity (ln)": "8.68 ± 0.33"},
      {"sequence": "TAAAAAGAAATGTAAAGTACAAATTTGAATAACATG [XGTACX_site7981]", "gcPBM binding intensity (ln)": "8.76 ± 0.43"},
      {"sequence": "TTTTTTTTTCTTTGGTGTACAATGTAATAGAAAATA [XGTACX_site227]", "gcPBM binding intensity (ln)": "8.4 ± 0.3"},
      {"sequence": "AAAAAAAACAAACACACACACAAATATTTATATATT [CACACA_site436]", "gcPBM binding intensity (ln)": "8.6 ± 0.48"},
      {"sequence": "TTGATTTTTATTTTTAAAATAAATAAATTTCAAATG [TGCATGCA_negctrl_site199]", "gcPBM binding intensity (ln)": "7.97 ± 0.38"},
      {"sequence": "TAAAAAATAAAAATTGCACACTAAAAAATTACCCAC [CACACA_site5823]", "gcPBM binding intensity (ln)": "8.99 ± 0.61"}
    ]}
  ]
}
